Read-outs that look alike come from different tables or passages of the source.
Columns and labels:
RS4;11 cells = experiment: cells; details: Homo sapiens
Molt-4 cells = experiment: cells; details: Homo sapiens
[1] = RS4-11, 48 h, read-out: Cellular activity (IC50, nM) RS4;11
[2] = MOLT-4, read-out: Cellular activity (IC50, nM) Molt-4
[3] = RS4-11, 48 h, read-out: Cellular activity (IC50, nM) RS4, 11

Row | Structure (SMILES) | IC50 (Molt-4 cells; [2]) [nM] | IC50 (RS4;11 cells; [3]) [nM] | other results
1 | CC1(C)CCC(CN2CCN(c3ccc(C(=O)NS(=O)(=O)c4ccc(NCC5CCOCC5)c([N+](=O)[O-])c4)c(Oc4cnc5[nH]ccc5c4)c3)CC2)=C(c2ccc(Cl)cc2)C1 [ABT-199, Venetoclax, reference compound] | 3170 | – | IC50 (RS4;11 cells; [1]): 9.5 nM; IC50 (RS4;11 cells; RS4-11, read-out: Celluclar activity (IC50, nM) RS 4, 11): 9.5 nM; IC50 (RS4;11 cells; RS4-11, read-out: Cellular activity (IC50, nM)): 3.8 nM; IC50 (Molt-4 cells; MOLT-4, read-out: Celluclar activity (IC50, nM) Molt-4): 3170 nM
2 | O=C(NS(=O)(=O)c1ccc(NCC2CCOCC2)c([N+](=O)[O-])c1)c1ccc(-c2ccc(N3CCCC3c3ccc(C4CC4)cc3)cc2)cc1Oc1cnc2[nH]ccc2c1 (stereo not shown) [Example A14, 3-((1H-pyrrolo[2,3-b]pyridin-5-yl)oxy)-4′-(2-(4-cyclopropylphenyl)pyrrolidin-1-yl)-N-((3-nitro-4-(((tetrahydro-2H-pyran-4-yl)methyl)amino)phenyl)sulfonyl)-[1,1′-biphenyl]-4-carboxamide] | > 10000 | 1570 | IC50 (RS4;11 cells; RS4-11, read-out: Cellular activity (IC50, nM) RS4, 11): 1570 nM
3 | COc1ccccc1C1CCCN1c1ccc(-c2ccc(C(=O)NS(=O)(=O)c3ccc(NCC4CCOCC4)c([N+](=O)[O-])c3)c(Oc3cnc4[nH]ccc4c3)c2)cc1 (stereo not shown) [Example A18, 3-((1H-pyrrolo[2,3-b]pyridin-5-yl)oxy)-4′-(2-(2-methoxyphenyl)pyrrolidin-1-yl)-N-((3-nitro-4-(((tetrahydro-2H-pyran-4-yl)methyl)amino)phenyl)sulfonyl)-[1,1′-biphenyl]-4-carboxamide] | > 10000 | 73 | –
4 | COc1ccc(C2CCCN2c2ccc(-c3ccc(C(=O)NS(=O)(=O)c4ccc(NCC5CCOCC5)c([N+](=O)[O-])c4)c(Oc4cnc5[nH]ccc5c4)c3)cc2)cc1 (stereo not shown) [Example A19, 3-((1H-pyrrolo[2,3-b]pyridin-5-yl)oxy)-4′-(2-(4-methoxyphenyl)pyrrolidin-1-yl)-N-((3-nitro-4-(((tetrahydro-2H-pyran-4-yl)methyl)amino)phenyl)sulfonyl)-[1,1′-biphenyl]-4-carboxamide] | > 10000 | 1020 | –
5 | CC1(C)CC(c2ccccc2)N(c2ccc(-c3ccc(C(=O)NS(=O)(=O)c4ccc(NCC5CCOCC5)c([N+](=O)[O-])c4)c(Oc4cnc5[nH]ccc5c4)c3)cc2)C1=O (stereo not shown) [Example A20, 3-((1H-pyrrolo[2,3-b]pyridin-5-yl)oxy)-4′-(3,3-dimethyl-2-oxo-5-phenylpyrrolidin-1-yl)-N-((3-nitro-4-(((tetrahydro-2H-pyran-4-yl)methyl)amino)phenyl)sulfonyl)-[1,1′-biphenyl]-4-carboxamide] | > 10000 | 1500 | –
6 | O=C(NS(=O)(=O)c1ccc(NCC2CCOCC2)c([N+](=O)[O-])c1)c1ccc(-c2ccc(N3C(=O)CC3c3ccccc3)cc2)cc1Oc1cnc2[nH]ccc2c1 (stereo not shown) [Example A21, 3-((1H-pyrrolo[2,3-b]pyridin-5-yl)oxy)-N-((3-nitro-4-(((tetrahydro-2H-pyran-4-yl)methyl)amino)phenyl)sulfonyl)-4′-(2-oxo-4-phenylazetidin-1-yl)-[1,1′-biphenyl]-4-carboxamide] | > 10000 | 6230 | –
7 | O=C(NS(=O)(=O)c1ccc(NCC2CCOCC2)c([N+](=O)[O-])c1)c1ccc(-c2ccc(N3CCCC3c3ccccc3)c(F)c2)cc1Oc1cnc2[nH]ccc2c1 (stereo not shown) [Example A33, 3-((1H-pyrrolo[2,3-h]pyridin-5-yl)oxy)-3′-fluoro-N-((3-nitro-4-(((tetrahydro-2H-pyran-4-yl)methyl)amino)phenyl)sulfonyl)-4′-(2-phenylpyrrolidin-1-yl)-[1,1′-biphenyl]-4-carboxamide] | > 10000 | 1370 | –
8 | CCC1(c2ccccc2)CCCN1c1ccc(-c2ccc(C(=O)NS(=O)(=O)c3ccc(NCC4CCOCC4)c([N+](=O)[O-])c3)c(Oc3cnc4[nH]ccc4c3)c2)cc1 (stereo not shown) [Example A55, 3-((1H-pyrrolo[2,3-b]pyridin-5-yl)oxy)-4′-(2-ethyl-2-phenylpyrrolidin-1-yl)-N-((3-nitro-4-(((tetrahydro-2H-pyran-4-yl)methyl)amino)phenyl)sulfonyl)-[1,1′-biphenyl]-4-carboxamide] | 8030 | 215 | –
9 | CN(C)c1ccccc1C1CCCN1c1ccc(-c2ccc(C(=O)NS(=O)(=O)c3ccc(NCC4CCOCC4)c([N+](=O)[O-])c3)c(Oc3cnc4[nH]ccc4c3)c2)cc1 (stereo not shown) [Example A65, 3-((1H-pyrrolo[2,3-b]pyridin-5-yl)oxy)-4′-(2-(2-(dimethylamino)phenyl)pyrrolidin-1-yl)-N-((3-nitro-4-(((tetrahydro-2H-pyran-4-yl)methyl)amino)phenyl)sulfonyl)-[1,1′-biphenyl]-4-carboxamide] | 3310 | 40 | –
10 | O=C(NS(=O)(=O)c1ccc(NCC2CCOCC2)c([N+](=O)[O-])c1)c1ccc(-c2ccc(N3CCCC3c3ccccc3N3CCC3)cc2)cc1Oc1cnc2[nH]ccc2c1 (stereo not shown) [Example A66, 3-((1H-pyrrolo[2,3-b]pyridin-5-yl)oxy)-4′-(2-(2-(azetidin-1-yl)phenyl)pyrrolidin-1-yl)-N-((3-nitro-4-(((tetrahydro-2H-pyran-4-yl)methyl)amino)phenyl)sulfonyl)-[1,1′-biphenyl]-4-carboxamide] | > 10000 | – | IC50 (RS4;11 cells; [1]): 289 nM
11 | CN1CC=C(c2ccccc2C2CCCN2c2ccc(-c3ccc(C(=O)NS(=O)(=O)c4ccc(NCC5CCOCC5)c([N+](=O)[O-])c4)c(Oc4cnc5[nH]ccc5c4)c3)cc2)CC1 (stereo not shown) [Example A68, 3-((1H-pyrrolo[2,3-b]pyridin-5-yl)oxy)-4′-(2-(2-(1-methyl-1,2,3,6-tetrahydropyridin-4-yl)phenyl)pyrrolidin-1-yl)-N-((3-nitro-4-(((tetrahydro-2H-pyran-4-yl)methyl)amino)phenyl)sulfonyl)-[1,1′-biphenyl]-4-carboxamide] | > 10000 | 20 | –
12 | CN1CC=C(c2ccccc2[C@H]2CCCN2c2ccc(-c3ccc(C(=O)NS(=O)(=O)c4ccc(NCC5CCOCC5)c([N+](=O)[O-])c4)c(Oc4cnc5[nH]ccc5c4)c3)cc2)CC1 [Example A68-R, (R)-3-((1H-pyrrolo[2,3-b]pyridin-5-yl)oxy)-4′-(2-(2-(1-methyl-1,2,3,6-tetrahydropyridin-4-yl)phenyl)pyrrolidin-1-yl)-N-((3-nitro-4-(((tetrahydro-2H-pyran-4-yl)methyl)amino)phenyl)sulfonyl)-[1,1′-biphenyl]-4-carboxamide] | 5240 | – | IC50 (RS4;11 cells; [1]): 10 nM
13 | CN1CC=C(c2ccccc2[C@@H]2CCCN2c2ccc(-c3ccc(C(=O)NS(=O)(=O)c4ccc(NCC5CCOCC5)c([N+](=O)[O-])c4)c(Oc4cnc5[nH]ccc5c4)c3)cc2)CC1 [Example A68-S, (S)-3-((1H-pyrrolo[2,3-b]pyridin-5-yl)oxy)-4′-(2-(2-(1-methyl-1,2,3,6-tetrahydropyridin-4-yl)phenyl)pyrrolidin-1-yl)-N-((3-nitro-4-(((tetrahydro-2H-pyran-4-yl)methyl)amino)phenyl)sulfonyl)-[1,1′-biphenyl]-4-carboxamide] | > 10000 | – | IC50 (RS4;11 cells; [1]): 196 nM
14 | O=C(NS(=O)(=O)c1ccc(NCC2CCOCC2)c([N+](=O)[O-])c1)c1ccc(-c2ccc(N3CC(F)CC3c3ccccc3C3CC3)cc2)cc1Oc1cnc2[nH]ccc2c1 (stereo not shown) [Example A73, 3-((1H-pyrrolo[2,3-b]pyridin-5-yl)oxy)-4′-(2-(2-cyclopropylphenyl)-4-fluoropyrrolidin-1-yl)-N-((3-nitro-4-(((tetrahydro-2H-pyran-4-yl)methyl)amino)phenyl)sulfonyl)-[1,1′-biphenyl]-4-carboxamide] | 2110 | 20 | –
15 | O=C(NS(=O)(=O)c1ccc(NCC2CCOCC2)c([N+](=O)[O-])c1)c1ccc(-c2ccc(N3CC(Cl)CC3c3ccccc3C3CC3)cc2)cc1Oc1cnc2[nH]ccc2c1 (stereo not shown) [Example A74, 3-((1H-pyrrolo[2,3-b]pyridin-5-yl)oxy)-4′-(4-chloro-2-(2-cyclopropylphenyl)pyrrolidin-1-yl)-N-((3-nitro-4-(((tetrahydro-2H-pyran-4-yl)methyl)amino)phenyl)sulfonyl)-[1,1′-biphenyl]-4-carboxamide] | 1850 | 8.6 | –
16 | COC1CC(c2ccccc2C2CC2)N(c2ccc(-c3ccc(C(=O)NS(=O)(=O)c4ccc(NCC5CCOCC5)c([N+](=O)[O-])c4)c(Oc4cnc5[nH]ccc5c4)c3)cc2)C1 (stereo not shown) [Example A75, 3-((1H-pyrrolo[2,3-b]pyridin-5-yl)oxy)-4′-(2-(2-cyclopropylphenyl)-4-methoxypyrrolidin-1-yl)-N-((3-nitro-4-(((tetrahydro-2H-pyran-4-yl)methyl)amino)phenyl)sulfonyl)-[1,1′-biphenyl]-4-carboxamide] | 5340 | 61 | –
17 | CC1CCN(c2ccc(-c3ccc(C(=O)NS(=O)(=O)c4ccc(NCC5CCOCC5)c([N+](=O)[O-])c4)c(Oc4cnc5[nH]ccc5c4)c3)cc2)C1c1ccccc1C1CC1 (stereo not shown) [Example A76, 3-((1H-pyrrolo[2,3-b]pyridin-5-yl)oxy)-4′-(2-(2-cyclopropylphenyl)-3-methylpyrrolidin-1-yl)-N-((3-nitro-4-(((tetrahydro-2H-pyran-4-yl)methyl)amino)phenyl)sulfonyl)-[1,1′-biphenyl]-4-carboxamide] | 2520 | 47 | –
18 | CC1(C)CCN(c2ccc(-c3ccc(C(=O)NS(=O)(=O)c4ccc(NCC5CCOCC5)c([N+](=O)[O-])c4)c(Oc4cnc5[nH]ccc5c4)c3)cc2)C1c1ccccc1C1CC1 (stereo not shown) [Example A77, 3-((1H-pyrrolo[2,3-b]pyridin-5-yl)oxy)-4′-(2-(2-cyclopropylphenyl)-3,3-dimethylpyrrolidin-1-yl)-N-((3-nitro-4-(((tetrahydro-2H-pyran-4-yl)methyl)amino)phenyl)sulfonyl)-[1,1′-biphenyl]-4-carboxamide] | 1860 | 55 | –

From US11420968B2 (priority 2018, dated 2022)
